# Experimental data from publication PMC4336329 (PLoS ONE, 2015).
# Among all 310,000 compounds or so, about 14,000 (4.5%) showed an effect of 50% or more. The effect is printed as a negative number. Some of the results follow.
# Target: human ether-à-go-go-related gene (hERG) potassium channel (human, UniProt Q12809)
# Experiment: primary screen, population patch clamp on CHO cells stably expressing hERG
# 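Note: peak tail current of the secondary pulse compared with the same well before compound.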
# human ether-à-go-go-related gene (hERG) potassium channel, sequence (Q12809 whole entry, looked up): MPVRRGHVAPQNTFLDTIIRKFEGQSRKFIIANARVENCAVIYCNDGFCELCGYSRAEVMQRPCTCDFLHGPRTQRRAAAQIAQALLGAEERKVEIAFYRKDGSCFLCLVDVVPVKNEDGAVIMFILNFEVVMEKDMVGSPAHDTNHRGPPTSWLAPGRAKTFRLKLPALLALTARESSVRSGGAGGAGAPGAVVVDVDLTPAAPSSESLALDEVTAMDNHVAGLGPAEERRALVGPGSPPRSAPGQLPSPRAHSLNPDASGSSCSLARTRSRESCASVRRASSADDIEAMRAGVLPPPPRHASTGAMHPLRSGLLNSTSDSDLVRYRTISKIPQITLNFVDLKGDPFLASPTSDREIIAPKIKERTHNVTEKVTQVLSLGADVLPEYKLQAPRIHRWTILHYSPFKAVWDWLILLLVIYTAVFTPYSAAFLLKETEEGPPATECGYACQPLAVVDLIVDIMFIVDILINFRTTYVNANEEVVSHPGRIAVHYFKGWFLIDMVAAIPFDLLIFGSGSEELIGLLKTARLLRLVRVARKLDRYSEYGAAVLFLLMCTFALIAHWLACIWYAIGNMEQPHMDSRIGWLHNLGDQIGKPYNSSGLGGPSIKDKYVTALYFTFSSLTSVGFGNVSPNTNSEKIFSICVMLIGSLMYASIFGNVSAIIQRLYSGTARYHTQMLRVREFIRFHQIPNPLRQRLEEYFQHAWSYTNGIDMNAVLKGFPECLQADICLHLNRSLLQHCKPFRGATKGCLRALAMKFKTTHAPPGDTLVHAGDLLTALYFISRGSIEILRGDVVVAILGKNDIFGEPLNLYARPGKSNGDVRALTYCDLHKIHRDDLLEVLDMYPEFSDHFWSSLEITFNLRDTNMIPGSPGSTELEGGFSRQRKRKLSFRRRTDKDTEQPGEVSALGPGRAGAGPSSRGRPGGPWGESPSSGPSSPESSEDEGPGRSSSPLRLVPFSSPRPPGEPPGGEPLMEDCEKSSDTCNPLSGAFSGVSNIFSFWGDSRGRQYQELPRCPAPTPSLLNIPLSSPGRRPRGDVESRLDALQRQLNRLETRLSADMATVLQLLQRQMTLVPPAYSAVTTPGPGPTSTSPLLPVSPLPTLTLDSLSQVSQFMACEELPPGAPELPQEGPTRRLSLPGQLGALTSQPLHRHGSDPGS
row,Compound,"hERG current change (%, negative = inhibition) at 10uM [%]"
1,O=c1[nH]c(=S)n(-c2ccccc2F)c(O)c1C=Nc1ccc(N2CCOCC2)cc1,0.651
2,O=C(CSC(=S)N1CCCC1)c1ccccc1,4.99
3,O=[N+]([O-])c1cc(S(=O)(=O)NC2=NCCCCC2)ccc1Cl,10.5
4,CCOc1ccccc1NC(=O)CSc1ccc(-c2ccco2)nn1,-16.6
5,Cc1cc(N2CCC(C)CC2)c(F)cc1[N+](=O)[O-],-9.64
6,Cc1cccc(NC(=O)Cn2c(=O)n(CCc3c[nH]c4ccccc34)c(=O)c3cccnc32)c1,3.29
7,COCCNC(=O)COc1ccc(C)c(C)c1,3.36
8,CC(C)c1ccc(N(CC(=O)N/N=C/c2ccc(OC3CSC3)cc2)S(=O)(=O)c2ccccc2)cc1,12.8
9,O=C(CSc1cccc2cccnc12)N/N=C/c1ccc(O)cc1,-23.1
10,Cc1ccc(CNC(=O)CCCNC(=O)c2ccc(Cl)cc2)n1C,2.05
11,O=C(NNC(=S)Nc1ccc(Br)cc1)c1cccnc1,19.4
12,CCOC(=O)CSc1nnc(CNC(=O)c2ccc([N+](=O)[O-])cc2)n1C,-16.9
13,CCOC(=O)N1CCN(C(=O)COc2cccc3c2CCN(Cc2ccccc2F)C3=O)CC1,-31.4
14,COC(=O)C[C@H]1c2cc(F)cc(F)c2S(=O)(=O)N1C1CCN(Cc2ccccc2)CC1,-32
15,O=C(Nc1ccc(NC(=O)C23CC4CC(CC(C4)C2)C3)cn1)c1ccco1,13.7
16,CC(C)N1CCN(c2ccc(OC[C@H]3CO[C@](Cn4cncn4)(c4ccc(Cl)cc4Cl)O3)cc2)CC1,-34.1
17,CC(C)(CO)NC(=O)CC1C(=O)NCCN1CC(c1ccccc1)c1ccccc1 (stereo not drawn),20.7
18,O=C(Cc1ccccc1)N[C@@H](Cc1ccccc1)c1nc2ccccc2[nH]1,1.13
19,Cc1cc(C)nc(-n2nc(C)c3c(C(F)F)cc(C)nc32)n1,15.3
20,O=C(NCCC(=O)N(CCc1ccccc1)Cc1ccccc1)c1ccc(Br)cc1,-44.9
21,CCOC(=O)CSc1nnc(-c2nnc(SCC(=O)OCC)n2CC)n1CC,-16.9
22,Cc1cc(C(=O)NC(C)C)on1,13.6

row,Compound,"hERG current change (%, negative = inhibition) at 10uM [%]"
1,Cc1cc2[nH]c(=O)c(=O)[nH]c2cc1S(=O)(=O)Nc1cccc(F)c1,-8.21
2,CCC(C)(C)NC(=O)C(c1ccc(OC)cc1)N(C(=O)CCC(=O)Nc1cc(C)on1)c1cc(OC)ccc1OC (stereo not drawn),-1.9
3,Cc1cccc(NCc2cc(Cl)ccc2O)n1,-3.83
4,O=C1C2C3C=CC([C@@H]2C(=O)N1c1nccs1)C31CC1 (stereo partly drawn),3.24
5,COC(=O)[C@H](CCSC)NC(=O)Cn1ccc(N)nc1=O,-3.29
6,O=C(Cn1c(=S)[nH]c2ncccc2c1=O)NCCc1ccccc1,18.9
7,CCCCN(C)C(=O)c1nc2ccccn2c1CN1CCN(C/C=C/c2ccccc2)CC1,-83.9
8,Cc1cc(C)c(S(=O)(=O)N/N=C/c2ccc([N+](=O)[O-])o2)c(C)c1,16.8
9,OCCN(Cc1nc(-c2ccc3c(c2)OCO3)no1)Cc1cccs1,7.32
10,CCOc1ncnc2c1sc1nc(C)cc(C)c12,16
11,Cc1ccc(CONC(=O)c2ccc([N+](=O)[O-])cc2)cc1,-9.26
12,Cc1ccc(C2=NS(=O)(=O)N(C)C(C(=O)Nc3cc(C)n(CC(=O)N4CCC(C)CC4)n3)=C2)cc1,-34.8
13,O=C(C[n+]1cc(-c2ccc(Cl)c(Cl)c2)n2c1CCC2)N1c2ccccc2Sc2ccccc21.[Cl-],-37.8
14,CC(C)(C)c1ccc(/C([O-])=C(/C(=S)NCc2ccco2)[n+]2ccccc2)cc1,6.63
15,CN(C)c1ccc(/C=N/N2CCN(c3ccccn3)CC2)cc1,5.6
16,Cl.O=[N+]([O-])c1ccccc1OCC(O)CNC1CCCC1 (stereo not drawn),-2.63
17,Cc1ccc2c(C)c(C(=O)NCc3ccc(S(N)(=O)=O)cc3)oc2c1C,17.7
18,O=C(c1ccccc1)c1sc(N2CCCCCC2)nc1-c1ccccc1,0.269
19,O=C1[C@H]2[C@@H](c3ccc(Cl)cc3)N3C(=O)N(c4cccc(Cl)c4)C(=O)[C@@]3(Cc3ccccc3)[C@H]2C(=O)N1C1CCCCC1,-2.02
20,COc1ccc(CNC(=O)COC(=O)c2[nH]c(C)c(C(C)=O)c2C)cc1OC,1.28
21,Cn1c(N)c(C(=O)COC(=O)C(Cc2ccccc2)NC(=O)c2ccccc2)c(=O)n(C)c1=O (stereo not drawn),-44.2
22,O=C(CSc1nnc(-c2ccncc2)o1)NCc1ccccc1,-9.8

row,Compound,"hERG current change (%, negative = inhibition) at 10uM [%]"
1,c1ccc(C2=NNC(c3ccco3)=Nc3ccccc32)cc1,0.173
2,O=C(CN(C(=O)CCC(=O)Nc1nccs1)c1cccc(F)c1)NCCc1ccccc1,-38.5
3,N#CCCN(Cc1cccnc1)C(=O)Nc1ccc(Cl)c(Cl)c1,-26
4,CC1CCCN(C(=O)CCc2nnc(-c3ccc4c(c3)OCO4)o2)C1 (stereo not drawn),-4.43
5,COC(=O)c1cc2oc3ccccc3c2n1Cc1ccccn1,-8.74
6,COc1cc(C)c(C(C)C)cc1S(=O)(=O)n1cnc(C)c1,-14
7,COc1ccc(S(=O)(=O)Cc2ccc(C(=O)NCc3ccc(C)cc3)o2)cc1,-24.5
8,CCOc1ccc(S(=O)(=O)n2nnc3ccccc32)cc1C,14.6
9,Nc1cc(=O)[nH]c(SCC(=O)Nc2ccc(Cl)c(Cl)c2)n1,1.27
10,O=C(CCc1nc2ccccc2n1-c1ccccc1)NCCO,6.97
11,COC(=O)C1CCN(C(=O)CN(C)Cc2ccc(C(C)(C)C)cc2)CC1,-16.7
12,Cc1cc(N2CCN(S(=O)(=O)c3ccc(Br)cc3)CC2)n2ncnc2n1,-76.9
13,Cc1ccc(C)c(C(=O)CN2C(=O)c3ccccc3C2=O)c1,9.96
14,CC(C)NC(=O)CSc1nnc2sc3ccccc3n12,-9.02
15,COc1ccc(CCN(C)Cc2cccc3ccccc23)cc1OC,-73.8
16,CC(C)N1C(=O)c2ccccc2C1C(=O)NCCc1ccccc1 (stereo not drawn),13.7
17,COC(=O)c1sc(=S)n(Cc2ccccc2)c1C,-0.144
18,Br.O=C(N/N=C/c1sc(N2CCOCC2)nc1-c1ccccc1)c1cccc(S(=O)(=O)N2CCOCC2)c1,-2.04
19,Nc1cc(-c2ccco2)no1,-8.15
20,CCN(CC)CCOC(=O)/C=C/c1ccccc1OC.Cl,-20
21,Cc1cc(NC(=O)CN2CCN(S(=O)(=O)c3ccc4ccccc4c3)CC2)no1,-14.7
22,CCCCC1CCC(C(=O)OCC(=O)Nc2ccc(S(N)(=O)=O)cc2)CC1 (stereo not drawn),4.59

row,Compound,"hERG current change (%, negative = inhibition) at 10uM [%]"
1,CN(Cc1ccccc1)c1nc(N)nc(Cl)c1C=O,-12
2,CCN(CC)c1nc(-c2ccccc2)nc2c1sc(=S)n2CC,25.2
3,COc1ccc(C2NC(=S)NC(C)=C2C(=O)Nc2ccccn2)cc1OC (stereo not drawn),22.1
4,CCn1c(CO)nc2c1c(=O)[nH]c(=O)n2Cc1ccccc1,17.7
5,Cc1cc(OCC(=O)C(C)(C)C)c2c(-c3ccccc3)cc(=O)oc2c1,-22.4
6,CCc1cc2cc(C)cc(C)c2nc1SCC(=O)Nc1cc(C)on1,17.4
7,O=C(C1CCN(S(=O)(=O)c2ccc(Cl)cc2)CC1)N1CCN(c2ccccn2)CC1,-64.7
8,CCOC(=O)c1c(C)n(C(C)C)c2ccc(OC)cc12,7.11
9,O=C(NC12CC3CC(CC(C3)C1)C2)c1cc([N+](=O)[O-])ccc1Cl,-5.77
10,COc1ccc2[nH]c3c(NCCN4CCCCC4)ncnc3c2c1,-55.9
11,COC(CNC(=O)C1CCC(CNS(=O)(=O)c2c(C)cc(C)cc2C)CC1)OC (stereo not drawn),-26
12,NC(=O)CSC1=N/C(=C\c2ccco2)C(=O)N1c1ccc(OC(F)F)cc1,-2.31
13,O=C1C(Cl)=C(Nc2ccc(F)cc2)C(=O)N1CCc1ccccc1,6.71
14,CCOC(=O)C1CCCN1C(=O)c1ccc(OC)c(Br)c1 (stereo not drawn),-2.58
15,O=C(N/N=C/c1cnc(N2CCCCC2)s1)c1ccc(Cl)cc1,5.94
16,CC(c1ccccc1)n1c(CCCO)nc2ccccc21 (stereo not drawn),-2.26
17,Cc1sccc1/C=N/NC(=O)c1cccc2ccccc12,11.1
18,O=[N+]([O-])c1ccc(N2CCNCC2)c(S(=O)(=O)N2CCOCC2)c1,11.7
19,CC(=O)Nc1nc(NC(=O)C(Cl)(Cl)Cl)n(-c2ccccc2)n1,7.98
20,O=C(NCCCN1CCOCC1)c1ccccc1-c1ccccc1,-0.98
21,Cc1cccc(C)c1NC(=O)CN(C)C(=O)Cn1c(=O)cnc2ccccc21,26.2
